# Results reported in PubChem BioAssay (Tox21).
# Several values for one entry are separate records, joined by “and”; a condition that tells them apart may be missing. Identical values can stand only once. This list was built around the results that the source calls inconclusive (neither active nor inactive); the mix of calls is not that of the screen. For part of these data: A potency beside an inconclusive call is a rough fit, not a confirmed value. Some structures have more than one record in an assay (separate samples or runs), and their calls can disagree. Activity calls are given as the source filed them. Unless noted, calls follow the shape of the dose curve; as a rule, active = well fitted curve in the direction sought with a large enough effect in the repeat runs; inconclusive = weak or mixed curves; inactive = no such curve, though single readings can be large; an effect the other way counts as inactive or inconclusive.
# Legend:
# [1] = qHTS assay to identify small molecule antagonists of the retinoid acid receptor (RAR) signaling pathway - cell viability counter screen (AID 1159551); also: potency is read from the fitted curve at half-maximal effect; nearly all actives have a fitted effect of over 35% in size
# Outline: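 C3RL4 RARE-luciferase line; cpds + retinol 1 uM final, 6 h, 37 C/5% CO2; CellTiter-Glo ATP luminescence, 30 min RT.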
# [2] = biological target: Luciferin 4-monooxygenase (Photinus pyralis) (UniProt P08659); assay: qHTS assay to identify small molecule inhibitors of firefly luciferase (AID 1224835); also: potency is read from the fitted curve at half-maximal effect; nearly all actives have a fitted effect of over 25% in size
# Chain of UniProt P08659 (P08659 whole entry, looked up): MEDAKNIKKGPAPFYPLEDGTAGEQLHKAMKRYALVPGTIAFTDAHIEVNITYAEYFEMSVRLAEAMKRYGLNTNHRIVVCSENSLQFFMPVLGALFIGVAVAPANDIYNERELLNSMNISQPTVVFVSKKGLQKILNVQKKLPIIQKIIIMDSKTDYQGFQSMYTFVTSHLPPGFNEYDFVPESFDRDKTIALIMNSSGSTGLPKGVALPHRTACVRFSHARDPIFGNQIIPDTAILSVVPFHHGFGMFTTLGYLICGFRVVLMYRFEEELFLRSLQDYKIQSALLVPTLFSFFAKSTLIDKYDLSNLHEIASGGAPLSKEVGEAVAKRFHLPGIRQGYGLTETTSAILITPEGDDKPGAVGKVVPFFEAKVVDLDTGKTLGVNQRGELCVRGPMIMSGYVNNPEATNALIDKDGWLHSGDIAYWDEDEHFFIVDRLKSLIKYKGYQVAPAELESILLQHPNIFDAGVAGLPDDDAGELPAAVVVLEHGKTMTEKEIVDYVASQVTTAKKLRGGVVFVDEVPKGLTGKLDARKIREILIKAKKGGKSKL
# Outline: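 Quantitative HTS format; KM concentrations of both substrates. Purified P. pyralis FLuc activity quantified from luminescence images.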
# [3] = qHTS assay to identify small molecule agonists of the constitutive androstane receptor (CAR) signaling pathway - cell viability counter screen (AID 1224836); also: potency is read from the fitted curve at half-maximal effect; nearly all actives have a fitted effect of over 45% in size
# Outline: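 HepG2-CYP2B6-hCAR, 2500 cells/well, 4 h pre-incubation; cpd 15 conc + PK11195 0.75 uM final; 23 h, 37 C/5% CO2; CellTiter-Fluor, fluorescence.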
# [4] = qHTS assay to identify small molecule antagonists of the constitutive androstane receptor (CAR) signaling pathway - cell viability counter screen (AID 1224837); also: potency is read from the fitted curve at half-maximal effect; nearly all actives have a fitted effect of over 45% in size
# Outline: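 Read-out: CellTiter-Fluor fluorescence after 23 hr at 37 C/5% CO2. Cells: HepG2 double-stable for hCAR and CYP2B6-2.2kb. Compounds tested at 15 concentrations in the presence of CITCO, final concentration 50 nM.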
# [5] = biological target: Nuclear receptor subfamily 1 group I member 3 (Homo sapiens) (UniProt Q14994); assay: qHTS assay to identify small molecule antagonists of the constitutive androstane receptor (CAR) signaling pathway (AID 1224838);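 also: HepG2 cells stably expressing hCAR with CYP2B6 luciferase reporter stimulated by CITCO; potency is read from the fitted curve at half-maximal effect; nearly all actives have a fitted effect of over 40% in size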
# Chain of UniProt Q14994 (Q14994 whole entry, looked up): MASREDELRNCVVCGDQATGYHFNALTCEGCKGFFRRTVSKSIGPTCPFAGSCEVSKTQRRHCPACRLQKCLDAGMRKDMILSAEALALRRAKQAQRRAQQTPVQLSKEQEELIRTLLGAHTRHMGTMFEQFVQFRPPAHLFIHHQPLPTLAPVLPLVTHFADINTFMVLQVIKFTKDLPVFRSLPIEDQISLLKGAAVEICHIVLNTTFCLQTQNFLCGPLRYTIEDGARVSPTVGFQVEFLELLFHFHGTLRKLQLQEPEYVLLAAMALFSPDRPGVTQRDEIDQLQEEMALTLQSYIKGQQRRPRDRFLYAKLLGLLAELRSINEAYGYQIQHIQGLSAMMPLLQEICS
# Outline: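 Read-out: ONE-Glo luciferase luminescence after 30 min at room temperature. HepG2-CYP2B6-hCAR double-stable cells, compounds in 15-point titration plus 50 nM CITCO final, 24 h at 37 C/5% CO2.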
# [6] = qHTS assay to identify small molecule antagonists of the estrogen related receptor signaling pathway with the pleiotropic PPARgamma coactivator (PGC) from Tox21 10K library - cell viability counter screen (AID 1224840; active = well fitted cell-killing curve with a large enough effect in the repeat runs, not every such curve was filed as active; inconclusive = weak or mixed curves, or effect the other way; inactive = no such curve, though single readings can be large or run the other way; also: potency is read from the fitted curve at half-maximal effect; nearly all actives have a fitted effect of over 40% in size)
# Outline: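 Fluorescence read-out of CellTiter-Fluor viability reagent, added after cells had been exposed to compound in DMSO for 17.5 h at 37 C; 30 min development at 37 C/5% CO2. Cells: PGC/ERR line, 2,000/well.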
# [7] = biological target: Thyrotropin receptor (Homo sapiens) (UniProt P16473); assay: qHTS assay to identify small molecule agonists of the thyroid stimulating hormone receptor (TSHR) signaling pathway (AID 1224843; calls by dose curve; also: nearly all actives have a fitted effect of over 45% in size; also: potency is read from the fitted curve at half-maximal effect; as to activation: % is scaled to controls: 0 for no effect and ±100 for the full control effect); conditions: TSHR-HEK293 cells, cAMP HTRF, agonist mode, 30 min; activation: at 92.4 µM (top of the series) unless noted
# Chain of UniProt P16473 (P16473 whole entry, looked up): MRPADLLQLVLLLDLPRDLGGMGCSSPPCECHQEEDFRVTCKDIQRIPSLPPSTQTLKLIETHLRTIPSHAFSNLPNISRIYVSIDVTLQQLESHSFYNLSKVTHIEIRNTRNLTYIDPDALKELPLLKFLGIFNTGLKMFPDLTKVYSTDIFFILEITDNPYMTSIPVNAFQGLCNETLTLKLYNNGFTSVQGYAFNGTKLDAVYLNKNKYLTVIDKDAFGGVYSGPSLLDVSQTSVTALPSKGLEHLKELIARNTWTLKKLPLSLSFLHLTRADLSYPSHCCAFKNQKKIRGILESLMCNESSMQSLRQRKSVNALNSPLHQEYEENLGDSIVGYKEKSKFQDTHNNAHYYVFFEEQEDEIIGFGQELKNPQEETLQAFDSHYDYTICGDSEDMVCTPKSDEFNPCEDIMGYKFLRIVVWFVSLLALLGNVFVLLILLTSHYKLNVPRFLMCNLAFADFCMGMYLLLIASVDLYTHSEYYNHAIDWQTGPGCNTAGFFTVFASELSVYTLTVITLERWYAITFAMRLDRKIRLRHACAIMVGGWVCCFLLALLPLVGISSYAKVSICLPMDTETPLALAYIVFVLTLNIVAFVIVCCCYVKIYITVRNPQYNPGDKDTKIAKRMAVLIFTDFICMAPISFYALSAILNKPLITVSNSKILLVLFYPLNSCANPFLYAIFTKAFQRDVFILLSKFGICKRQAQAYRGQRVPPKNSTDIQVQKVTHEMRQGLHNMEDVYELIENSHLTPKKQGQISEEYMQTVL
# Outline: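 Using 15 concentrations per compound in triplicate, cAMP production was monitored in TSHR-HEK293 cells after 30 min compound incubation at RT; HTRF reagents followed, with fluorescence intensity recorded after 1 h.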
# [8] = qHTS assay to identify small molecule antagonists of the estrogen related receptor (ERR) signaling pathway - cell viability counter screen (AID 1224818); also: potency is read from the fitted curve at half-maximal effect
# Outline: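 Fluorescence from CellTiter-Fluor, read 30 min after reagent addition at 37 C, measured viability of ERR cells exposed to compounds for 17.5 h. Cells had settled 6 h before dosing.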
# [9] = qHTS assay to identify small molecule antagonists of the estrogen related receptor signaling pathway with the pleiotropic PPARgamma coactivator (PGC) cell viability counter screen (AID 1224822; also: potency is read from the fitted curve at half-maximal effect)
# Outline: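 Fluorescence read-out of CellTiter-Fluor after 30 min at 37 C; PGC/ERR cells, 2,000 per well, had been exposed to DMSO-dissolved compounds for 17.5 h following a 6 h pre-incubation.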
# [10] = qHTS assay to identify small molecule agonists of the estrogen related receptor signaling pathway with the pleiotropic PPARgamma coactivator (PGC) from Tox21 10K library (AID 1224842); also: nearly all actives have a fitted effect of over 15% in size; also: potency is read from the fitted curve at half-maximal effect; as to activation: % is scaled to controls: 0 for no effect and ±100 for the full control effect
# Outline: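 PGC/ERR reporter cells (NTP line) were seeded 2,000 per well, rested 6 h at 37 C/5% CO2, then pin-dosed with compounds in DMSO for 18 h at 37 C; luciferase read by One-Glo luminescence after 30 min at room temperature.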
# [11] = qHTS assay to identify small molecule agonists of the hypoxia (HIF-1) signaling pathway - cell viability counter screen (AID 1224844; calls by dose curve; also: potency is read from the fitted curve at half-maximal effect; nearly all actives have a fitted effect of over 50% in size)
# Outline: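 CellTiter-Glo luminescence read-out, 30 min RT, taken in the same wells as the beta-lactamase HRE reporter assay; HRE-bla ME-180 cells, 0.5% dialyzed FBS, 17 hr compound treatment at 37C, 5% CO2.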
# [12] = qHTS assay to identify small molecule agonists of the retinoic acid receptor (RAR) signaling pathway (AID 1159553); conditions: C3RL4 RARE luciferase reporter, agonist, 6 h; activation: at 73.3 µM (top of the series) unless noted; also: potency is read from the fitted curve at half-maximal effect
# Outline: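 RARE-luc C3RL4 cells; overnight attachment 37 C/5% CO2; compound (DMSO) 6 hr; luciferase reagent, 30 min RT; luminescence read-out.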
# [13] = qHTS assay to identify small molecule antagonists of the estrogen related receptor signaling pathway with the pleiotropic PPARgamma coactivator (PGC) from Tox21 10K library (AID 1224841; call rule not given here; also: potency is read from the fitted curve at half-maximal effect; actives are mostly falling curves and most rising ones were filed inactive; nearly all actives have a fitted effect of over 50% in size)
# Outline: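 Luminescence read-out (One-Glo luciferase reagent, 30 min at room temperature) from PGC/ERR cells exposed to DMSO-dissolved test compounds for 18 h at 37 C; cells, 2,000 per well, had been preincubated 6 h before compound transfer.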
# [14] = qHTS assay to identify small molecule agonists of the estrogen related receptor signaling pathway with the pleiotropic PPARgamma coactivator (PGC) (AID 1224823); also: % is scaled to controls: 0 for no effect and ±100 for the full control effect
# Outline: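 Luminescence readout (One-Glo, 30 min RT) from PGC/ERR cell line treated 18 h at 37 C with pin-tool-delivered DMSO compound solutions; cells plated 6 h before dosing. Quantitative HTS format.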
# [15] = biological target: Nuclear receptor subfamily 1 group I member 3 (Homo sapiens) (UniProt Q14994); assay: qHTS assay to identify small molecule agonists of the constitutive androstane receptor (CAR) signaling pathway (AID 1224839); also: potency is read from the fitted curve at half-maximal effect; nearly all actives have a fitted effect of over 15% in size
# Outline: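 HepG2-CYP2B6-hCAR cells, 2500/well, 4 h pre-incubation; compounds 15 conc.; PK11195 0.75 uM final; 24 h, 37 C/5% CO2; ONE-Glo luciferase read.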
# [16] = qHTS assay to identify small molecule antagonists of the estrogen related receptor (ERR) signaling pathway (AID 1224819; also: potency is read from the fitted curve at half-maximal effect; nearly all actives have a fitted effect of over 50% in size)
# Outline: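 Luminescence readout (One-Glo, 30 min, RT) of ERR cell line after 18 h compound exposure at 37 C; cells seeded 2,000/well, pre-incubated 6 h, compounds pinned from DMSO stocks.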
# [17] = qHTS assay to identify small molecule antagonists of the estrogen related receptor (ERR) signaling pathway from Tox21 library - cell viability counter screen (AID 1224834); also: potency is read from the fitted curve at half-maximal effect; nearly all actives have a fitted effect of over 30% in size
# Outline: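 Multiplexed viability counter screen in ERR cells: 17.5 h compound exposure at 37 C, CellTiter-Fluor added, 30 min at 37 C/5% CO2, fluorescence read.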
# Tags tell the direction and shape of the fitted curve or compound fluorescence and quenching.
compound,measurement,setting,value
O=C1OC2(c3ccccc31)c1cc(Br)c(O)c(Br)c1Oc1c2cc(Br)c(O)c1Br,Potency,[1],"inconclusive: 15.6 µM [cytotoxic, partial curve, poor fit] and inconclusive: 17.7 µM [cytotoxic, partial curve, poor fit]"
same,Potency,[2],"inconclusive: 34.7 µM [inhibitor, partial curve]"
same,Potency,[3],"inconclusive: 28.1 µM [cytotoxic, partial curve]"
same,Potency,[4],"active: 7.81 µM and active: 25 µM and inconclusive: 15 µM [cytotoxic, partial curve]"
same,Potency,[5],"inconclusive: 15.6 µM [inhibitor, full curve] and inconclusive: 6.28 µM [inhibitor, full curve]"
same,Potency,[6],"inconclusive: 13.9 µM [cytotoxic, full curve] and inconclusive: 44.5 µM [cytotoxic, partial curve] and inconclusive: 13.3 µM [cytotoxic, partial curve]"
same,Potency,[7],"inconclusive: 22 µM [inhibitor, partial curve] and inconclusive: 25 µM [inhibitor, partial curve] and inconclusive: 26.6 µM [inhibitor, partial curve]"
CCCC(=O)c1cc(O)c(O)cc1O,Potency,[1],"inconclusive: 27.3 µM [cytotoxic, single point]"
same,Potency,[8],inactive
same,Potency,[9],inconclusive: 17.9 µM [cytotoxic]
same,Potency,[2],active: 31.7 µM
same,Potency,[3],"inconclusive: 19.3 µM [cytotoxic, full curve]"
same,Potency,[4],"inconclusive: 27.3 µM [cytotoxic, partial curve]"
same,Potency,[5],"inconclusive: 13.7 µM [inhibitor, partial curve]"
same,Potency,[6],"inconclusive: 21.7 µM [cytotoxic, full curve]"
same,Potency,[10],"inconclusive: 2.73 µM [activator, single point]"
same,activation,[7],inconclusive: -13.3%
same,Potency,[11],"inconclusive: 24.5 µM [cytotoxic, full curve]"
CCCCCCCCCCCCN(CCO)CCO,Potency,[1],active: 68.3 µM
same,Potency,[12],inconclusive: 27.2 µM [inhibitor]
same,Potency,[4],active: 68.3 µM
same,Potency,[13],"inconclusive: 68.3 µM [falling, single point]"
same,Potency,[11],"inconclusive: 54.7 µM [cytotoxic, single point]"
CC1=C(C(=O)OC(C)C)C(c2cccc([N+](=O)[O-])c2)C(C(=O)OC2CN(C(c3ccccc3)c3ccccc3)C2)=C(N)N1 (centres undefined),Potency,[1],"inconclusive: 33.5 µM [cytotoxic, single point]"
same,Potency,[12],"inconclusive: 21.1 µM [inhibitor, partial curve]"
same,Potency,[3],active: 29.8 µM
same,Potency,[5],"inconclusive: 33.5 µM [inhibitor, single point]"
same,Potency,[6],active: 29.8 µM
same,Potency,[11],active: 6.74 µM
COC(=O)c1c(Cl)c(Cl)c(C(=O)OC)c(Cl)c1Cl,Potency,[1],"inconclusive: 30.6 µM [cytotoxic, partial curve, poor fit]"
same,Potency,[14],inactive
same,Potency,[15],active: 54.5 µM and active: 8.63 µM
same,Potency,[10],inactive and inconclusive: 27.3 µM [activator]
same,Potency,[7],"inconclusive: 54.5 µM [inhibitor, partial curve] and inconclusive: 48.6 µM [inhibitor, partial curve]"
CCCCc1oc2ccccc2c1C(=O)c1cc(I)c(OCCN(CC)CC)c(I)c1,Potency,[1],"inconclusive: 48.9 µM [cytotoxic] and inconclusive: 29.8 µM [cytotoxic, partial curve]"
same,Potency,[8],inconclusive: 24.6 µM [cytotoxic]
same,Potency,[16],inconclusive: 31 µM [inhibitor]
same,Potency,[9],inconclusive: 22 µM [cytotoxic]
same,Potency,[4],"inconclusive: 29.8 µM [cytotoxic, partial curve, poor fit]"
same,Potency,[6],"active: 43.6 µM and inconclusive: 26.6 µM [cytotoxic, partial curve, poor fit]"
same,Potency,[13],"inconclusive: 29.8 µM [falling, partial curve]"
same,Potency,[11],active: 27.8 µM and active: 21.3 µM
CC(=O)O[C@]1(C(C)=O)CC[C@H]2[C@@H]3C=C(C)C4=CC(=O)CC[C@]4(C)[C@H]3CC[C@@]21C,Potency,[1],"inconclusive: 16.8 µM [rising, partial curve, poor fit]"
same,Potency,[17],inconclusive: 33.5 µM [cytotoxic]
same,Potency,[3],"inconclusive: 68.6 µM [cytotoxic, partial curve, poor fit]"
same,Potency,[4],"inconclusive: 68.6 µM [cytotoxic, partial curve, poor fit]"
CC(C)(C)c1cccc(C(C)(C)C)c1O,Potency,[1],"inconclusive: 61.1 µM [cytotoxic, partial curve, poor fit]"
same,Potency,[17],"inconclusive: 33.6 µM [cytotoxic, partial curve]"
same,Potency,[3],"inconclusive: 67.1 µM [cytotoxic, partial curve, poor fit]"
same,Potency,[4],"inconclusive: 53.3 µM [cytotoxic, partial curve]"
same,Potency,[5],"inconclusive: 67.1 µM [inhibitor, single point]"
same,Potency,[15],"inconclusive: 53.3 µM [activator, partial curve, poor fit]"
same,Potency,[6],"inconclusive: 37.7 µM [cytotoxic, partial curve]"
same,Potency,[11],active: 53.7 µM
